About 2,200 (0.71%) of roughly 310,000 compounds showed an effect of 50% or more. Effects have a minus sign here. The list shows a part of the results.

Sequence of human ether-à-go-go-related gene (hERG) potassium channel (Q12809 whole entry, looked up): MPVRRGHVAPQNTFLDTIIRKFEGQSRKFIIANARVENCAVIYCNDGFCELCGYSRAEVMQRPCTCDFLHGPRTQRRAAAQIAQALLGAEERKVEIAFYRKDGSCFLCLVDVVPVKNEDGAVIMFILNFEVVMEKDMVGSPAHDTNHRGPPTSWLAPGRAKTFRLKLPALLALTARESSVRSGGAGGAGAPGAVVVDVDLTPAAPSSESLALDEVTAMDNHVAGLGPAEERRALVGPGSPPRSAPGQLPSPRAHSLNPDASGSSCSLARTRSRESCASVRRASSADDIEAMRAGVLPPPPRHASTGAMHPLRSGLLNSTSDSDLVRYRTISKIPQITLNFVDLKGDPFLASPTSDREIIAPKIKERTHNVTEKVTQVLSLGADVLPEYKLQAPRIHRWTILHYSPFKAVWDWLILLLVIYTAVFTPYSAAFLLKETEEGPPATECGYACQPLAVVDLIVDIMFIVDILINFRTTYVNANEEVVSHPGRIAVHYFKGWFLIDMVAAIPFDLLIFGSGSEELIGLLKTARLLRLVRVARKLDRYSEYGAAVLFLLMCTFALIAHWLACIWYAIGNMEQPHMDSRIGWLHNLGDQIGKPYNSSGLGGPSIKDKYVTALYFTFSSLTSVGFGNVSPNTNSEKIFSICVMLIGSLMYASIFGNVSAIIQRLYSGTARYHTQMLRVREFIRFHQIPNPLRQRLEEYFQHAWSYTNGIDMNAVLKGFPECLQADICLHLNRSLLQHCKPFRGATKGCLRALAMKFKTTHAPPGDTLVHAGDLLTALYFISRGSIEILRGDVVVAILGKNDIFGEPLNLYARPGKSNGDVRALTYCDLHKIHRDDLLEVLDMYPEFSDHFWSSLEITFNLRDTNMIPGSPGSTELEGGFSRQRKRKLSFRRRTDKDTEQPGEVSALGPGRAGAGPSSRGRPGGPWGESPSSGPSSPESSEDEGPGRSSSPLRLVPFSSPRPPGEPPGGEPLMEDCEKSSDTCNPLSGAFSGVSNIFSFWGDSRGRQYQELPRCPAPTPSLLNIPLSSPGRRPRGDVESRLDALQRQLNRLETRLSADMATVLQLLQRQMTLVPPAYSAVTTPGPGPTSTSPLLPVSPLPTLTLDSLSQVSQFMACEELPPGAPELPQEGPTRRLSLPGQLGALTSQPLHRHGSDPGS

The assay addresses human ether-à-go-go-related gene (hERG) potassium channel (human, UniProt Q12809). As to the kind of experiment: primary screen, population patch clamp on CHO cells stably expressing hERG.
With `Br.CNc1nc2ccccc2n1CC(=O)c1ccccc1`, the “hERG current change (%, negative = inhibition) at 1uM” value is on record as 13.6%.
With `CCC(C)NC(=O)C1CCN(S(=O)(=O)c2cccc3nonc23)CC1` (stereo not shown) the figure was 13%; with `Nc1nc2sc3c(c2cc1C(=O)NCC(=O)O)CCCC3`, 17.1%.
With `CCOC(=O)N1CCC(NS(=O)(=O)c2ccc(C)c(Cl)c2)CC1` the figure was -3.71%; with `O=c1c2c(ncn2C2CCCC2)n(Cc2ccccc2)c(=O)n1CCOc1ccccc1`, 13%.
With `O=C(N/N=C/c1ccccc1C(F)(F)F)c1ccc(O)cc1` the figure was 4.73%; with `COc1ccc(-c2cc(C(F)F)n3ncc(C(=O)N4CCN(C)CC4)c3n2)cc1`, 7.31%; with `Cc1ccc(C2/C(=C(/O)c3ccc(OC(C)C)cc3)C(=O)C(=O)N2CCN2CCOCC2)cc1` (stereo not shown), 4.88%.
Regarding `Cc1cc(C)n(-c2nncc(-c3ccccc3)n2)n1`, the “hERG current change (%, negative = inhibition) at 1uM” value stood at 2.94%.
With `Cc1c(C(=O)NCc2ccco2)oc2ccc(S(=O)(=O)N3CCC4(CC3)OCCO4)cc12` the figure was 5.6%.
With `CCN(CC)CCSc1nc(O)c(C(C)C)c(=O)[nH]1.Cl` the figure was 14.8%; with `CN(C)CCN=Cc1c(O)n(C2CCCCCC2)c(=O)[nH]c1=O`, 14%; with `Cc1csc(CN(C)C(=O)CC2C(=O)NCCN2Cc2ccc(Cl)c(F)c2)n1` (stereo not shown), 7.86%.
With `CCN1C(=O)[C@H]2[C@@H](c3ccc(OC)cc3)N3C(=O)CN(CC4CC4)C(=O)[C@@]3(C)[C@H]2C1=O` the figure was -9.52%.
Consider `O=[N+]([O-])c1ccc(-c2cnc[nH]2)cc1`, for which the “hERG current change (%, negative = inhibition) at 1uM” value is reported as 7.93%.
With `CN(CC(=O)Nc1ccccc1Br)C(=O)c1ccccc1Cc1ccccc1` the figure was 4.41%; with `COCCn1nnnc1CN1CCSCC1.Cl`, 19.4%; with `Cc1ccc(C(C)C)cc1OCC(=O)Nc1ccc(N2CCCCC2)cc1`, 14.1%.
For `CCOc1ccc(N(CC(=O)Nc2ccc(C)c(C)c2)S(=O)(=O)c2c(C)[nH]c(=O)[nH]c2=O)cc1`, the “hERG current change (%, negative = inhibition) at 1uM” value is reported as 10.6%.
For the compound `CC(C)(C)OC(=O)NCCCCCc1nnc(SCc2ccc(F)cc2)o1`, the “hERG current change (%, negative = inhibition) at 1uM” value was 3.71%.
With `Cc1nn(C)c(C)c1CN(C)S(=O)(=O)c1ccc(F)cc1` the figure was 1.05%; with `O=C(CCc1c[nH]c2ccccc12)NC(Cc1c[nH]c2ccccc12)C(=O)O` (stereo not shown), 12.7%; with `CN1OCC(S(=O)(=O)c2ccccc2)C1c1ccccc1` (stereo not shown), 8.4%.
With `Cl.NS(=O)(=O)c1ccc(CCNCc2cccnc2)cc1` the figure was 9.59%; with `CCc1nc(N[C@H](C(=O)O)C(C)C)c2oc3ccccc3c2n1`, 16%; with `O=C(c1cc(=O)[nH]c2ccccc12)N1CCN(c2ccccc2)CC1`, 7.22%.
With `Cc1cc(Nc2nc3ccccc3nc2Cl)n(-c2ccccc2C)n1` the figure was 2.54%; with `COc1cccc2sc(Nc3nnc(-c4ccc(F)cc4)o3)nc12`, 3.05%.
As for `O=C1NC(=O)C(=Cc2cc([N+](=O)[O-])ccc2N2CCCCC2)C(=O)N1`, the “hERG current change (%, negative = inhibition) at 1uM” value was found to be 4.84%.
With `COc1ccc(COC(=O)C2CCN(S(=O)(=O)c3ccc(OC)c(OC)c3)CC2)cc1` the figure was 4.15%; with `CC(=O)N/N=C/c1cc2c(cc1[N+](=O)[O-])OCO2`, 8.06%; with `O=C(/C=C/c1ccc([N+](=O)[O-])cc1)N(c1ccccn1)C1CCCCC1`, 4.69%.
With `Cn1c(SCC(=O)Nc2ccccc2Cl)nnc1C1CC1` the figure was 9.25%; with `Cc1cc(C)c(C)c(S(=O)(=O)N2CCN(C(=O)c3ccncc3)CC2)c1C`, 6.39%.
With `CCCC(=O)Nc1nc(-c2ccc(Cl)s2)cs1` the figure was 24.6%; with `CCn1ncc([N+](=O)[O-])c1C(=O)NC1CCCCC1`, 13.3%.
For the compound `CCOC(=O)CCc1c(C)nc2c(c(C)nn2C(C)(C)C)c1C`, the “hERG current change (%, negative = inhibition) at 1uM” value is given as 7.54%.
With `O=C1c2ccccc2C(=O)N1CCCCN(C(=O)c1cc2ccccc2oc1=O)c1ccc(F)cc1F` the figure was 4.87%.
For `CCOC(=O)N1CCC(NC(=O)C(Cc2ccccc2)NC(=O)c2ccco2)CC1` (stereo not shown), the “hERG current change (%, negative = inhibition) at 1uM” value worked out at 5.74%.
Take `CC(C)c1ccc(NC(=O)c2csnn2)cc1`: the “hERG current change (%, negative = inhibition) at 1uM” value turned out to be 7.02%.
With `CN(C)C(CNc1ncccn1)c1ccccc1` (stereo not shown) the figure was 14.4%; with `CN(Cc1ccco1)S(=O)(=O)c1csc(C(N)=O)c1`, 13.5%; with `Oc1c(Cl)cc(Cl)cc1CNn1cnnc1`, 14.3%.
With `COc1ccc(C(C)(C)C)cc1NC(=O)C1C2C=CC(C2)C1C(=O)O` (stereo not shown) the figure was 11.6%; with `Cc1cccc(C(=O)NNC(=O)CCn2nnc3ccccc32)c1`, 16.9%; with `Cc1[nH]c(=O)[nH]c(=O)c1S(=O)(=O)Nc1ccc(S(N)(=O)=O)cc1`, 15.7%.
As to `COC(=O)c1ccc(Oc2nc3c(c(=O)n(C)c(=O)n3C)n2CCC(C)C)cc1`, the “hERG current change (%, negative = inhibition) at 1uM” value worked out at 9.24%.
Regarding `Cl.O=C(NCCNCCO)c1c(O)c2cccc3c2n(c1=O)CCC3`, the “hERG current change (%, negative = inhibition) at 1uM” value is -2.57%.
With `[O-]/[N+](=C\c1ccccc1)c1ccccc1`, the “hERG current change (%, negative = inhibition) at 1uM” value amounted to 13.6%.
Turning to `O=C(Nc1sc2c(c1C(=O)O)CCC2)c1cccc(Cl)c1`, the “hERG current change (%, negative = inhibition) at 1uM” value stood at 16.3%.
With `Cc1ccc(C#CC[N+](C)(C)CC#Cc2ccccc2)cc1.[Br-]` the figure was -30.4%.
With `Cc1ccc(C(=O)NCC(c2ccco2)N2CCc3ccccc3C2)cc1C` (stereo not shown) the figure was -5.84%.
With `COc1ccc(-n2c(SC(C)C(=O)N3CCOCC3)nc3ccccc3c2=O)cc1` (stereo not shown) the figure was 11.9%.
Regarding `CCCOc1cccc(C2/C(=C(\O)c3ccc4c(c3)OCCO4)C(=O)C(=O)N2CCCn2ccnc2)c1` (stereo not shown), the “hERG current change (%, negative = inhibition) at 1uM” value was found to be 17.9%.
With `CSc1nc2c(c(=O)n1Cc1ccccc1)SC(C)C2` (stereo not shown) the figure was 2.75%; with `CN(CCc1ccccn1)C(=O)CCc1nnc(CCCc2ccccc2)o1`, 4.67%; with `Cc1nn(-c2ccccc2)c(C)c1/C=N/NC(=O)c1cc(-c2cccs2)[nH]n1`, 0.783%.
With `O=C(Nc1nc2ccccc2[nH]1)c1ccc(S(=O)(=O)N2CCOCC2)cc1` the figure was 15.2%; with `O=C(CC(=O)N/N=C/c1c(F)cccc1Cl)NCc1ccccc1`, 9.14%; with `O=C(N/N=C/c1cccc([N+](=O)[O-])c1)C1CC1c1ccccc1` (stereo not shown), 0.918%.
With `Brc1c(OCCOCCn2cncn2)ccc2ccccc12` the figure was 3.89%; with `c1ccc(-n2nnnc2SCc2cccc3nsnc23)cc1`, 8.61%.
Regarding `CCNC(=O)[C@H]1O[C@@H](n2cnc3c(N)ncnc32)[C@H](O)[C@@H]1O`, the “hERG current change (%, negative = inhibition) at 1uM” value was determined as 11.6%.
With `O=C(CCCn1c(SCc2cc(=O)n3ccccc3n2)nc2ccccc2c1=O)NCC1CCCO1` (stereo not shown) the figure was 16.9%; with `COc1ccc([N+](=O)[O-])cc1-n1cnnn1`, 17.1%; with `O=C(COc1ccc2ccccc2c1)N1CCN(C(=O)c2cccnc2)CC1`, -4.88%.
With `COc1ccc(/C=C/C(=O)N2CCC(c3ccccc3)C2)cc1` (stereo not shown) the figure was -6.25%; with `CCn1ccnc1CN(C)Cc1cn(-c2cccc(C)c2)nc1-c1cccc(F)c1`, 15%.
With `N#C/C(=C\c1ccc[nH]1)C(=O)N1CCCCC1` the figure was 12.9%; with `COc1ccc(/C=N/NC(=O)CN(c2ccc(OC)cc2)S(=O)(=O)c2ccccc2)cc1`, 8.43%; with `O=C(COC(=O)c1cc(Cl)ccc1Cl)NC1CCCC1`, 3.71%.
Take `COC(=O)C1SCC2C(=O)N(Cc3ccccc3)CC(=O)N21` (stereo not shown): the “hERG current change (%, negative = inhibition) at 1uM” value is reported as 14%.
With `O=C1NC(=NCc2ccccc2)S/C1=C/c1ccc(O)cc1` the figure was 8.13%.
For the compound `CC(O)CNc1nc2ccccc2n1-c1ncnc2sc3c(c12)CCC3` (stereo not shown), the “hERG current change (%, negative = inhibition) at 1uM” value is -2.21%.
For `Oc1ccc(/C=N/N2CCN(C3c4ccccc4-c4ccccc43)CC2)cc1`, the “hERG current change (%, negative = inhibition) at 1uM” value came out at 6.97%.
Take `COc1ccc(CCNC(=O)CN2CCC(C)CC2)cc1OC.O=C(O)C(=O)O`: the “hERG current change (%, negative = inhibition) at 1uM” value was determined as 22.7%.
With `Cc1ccccc1OCC(=O)Nc1sc2c(c1C#N)CC(C)(C)NC2(C)C` the figure was 13.3%; with `CCOC(=O)C1CCN(C(=O)c2sc3nc(-c4ccccc4)cn3c2C)CC1`, -8.54%.
With `Cc1ccc(CCNC(=O)CN2C(=O)COc3ccccc32)cc1` the figure was -0.587%; with `CC1CC(C)CN(S(=O)(=O)c2ccc(C(=O)Nc3sccc3C(N)=O)cc2)C1` (stereo not shown), 10.2%; with `O=C(Nc1ccc2c(c1)CCC2)c1cccc(S(=O)(=O)N2CCN(c3ccc(F)cc3)CC2)c1`, 3.13%.
With `Cl.O=C(Nc1cccc(Cl)c1)NC1CCN(C2CCCCC2)C1` (stereo not shown) the figure was 1.6%.
For `O=C(Cn1c(NCCO)nc2ccccc21)N1CCN(Cc2ccccc2)CC1`, the “hERG current change (%, negative = inhibition) at 1uM” value turned out to be 3.72%.
`Cc1nc2ccccc2cc1C(=O)NCc1ccc(F)cc1`: the “hERG current change (%, negative = inhibition) at 1uM” value was -15.8%.
Turning to `COc1ccc(N(CC(=O)N2CCOCC2)S(C)(=O)=O)cc1OC`, the “hERG current change (%, negative = inhibition) at 1uM” value stood at 12.2%.
With `CN(C)S(=O)(=O)c1cccc(C(=O)NCC2CCCO2)c1` (stereo not shown) the figure was 4.21%.
On to `COc1ccccc1N1C(=O)c2cccc3c(C(=O)O)ccc(c23)C1=O`, for which the “hERG current change (%, negative = inhibition) at 1uM” value is listed as -7.52%.
With `Cc1cc(C(=O)OCC(=O)Nc2cc(S(=O)(=O)N(C)C)ccc2C)c2ccccc2n1` the figure was 6.52%.

Source of the values: PMC4336329 (PLoS ONE, 2015).
